Experimental data from ChEMBL document CHEMBL4888484, “Replenishing the malaria drug discovery pipeline: Screening and hit evaluation of the MMV Hit Generation Library 1 (HGL1) against asexual blood stage Plasmodium falciparum ,using a nano luciferase reporter read-out” (2022).
The whole screen tested about 150,000 compounds, of which about 540 (0.36%) showed an effect of 50% or more. The list shows a part of the results.

The compounds below were run on Plasmodium falciparum (assay: Primary screen in NF54 nanoGlo assay, in single point, at 2uM, 72h; a lower Z score goes with more inhibition). Conditions: timepoint 72 hour.
Format: functional, Erythrocyte

SMILES	% Inhibition [%]	Z score
COc1ccc(NC(=O)N2CCN3C(=O)CNC(=O)[C@@H]3C2)c(C)c1	-5	0.64
CCN1CCC[C@H](NC(=O)c2cccc(OCc3ccc(F)cc3)c2)C1	2	-0.29
Cc1cccc(-c2ccc(C(=O)N(C)C(C3CC3)C3CC3)c(=O)[nH]2)c1	0	0.04
COC(CNC(=O)c1c[nH]c(C)cc1=O)(OC)c1ccccc1	-12	1.69
CCOc1ccc2c(c1)[C@H](NC(C)=O)C(=O)N2Cc1cc2c(cc1Cl)OCO2	-4	0.59
Cc1occc1C(=O)N[C@@H](C)CCc1ccccc1	0	-0.06
CCN(CCOC)Cc1cc(CC(C)C)nn1C	-12	1.69
CCc1ncnc(NCc2cccc(N)n2)c1F	-5	0.88
COc1ccccc1[C@@H](NC(=O)Cn1cnnn1)c1ccco1	-9	1.46
COC(=O)CN(CN1C(=O)c2cc(Cl)c(Cl)cc2C1=O)[C@H]1CCS(=O)(=O)C1	-2	0.18
Cc1cc[nH]c1C(=O)N1C[C@@H](O)C[C@H]1CO	-10	1.42
COCCN1C(C)CN(S(=O)(=O)N(C)C(C)CC#N)CC1C (stereo unspecified)	-8	1.09
COc1ccc(OC)c(-c2n[nH]cc2CN2CC(F)(F)C[C@H]2CN2CCCCC2)c1	-12	2.14
C[C@H](NCC(C)(C)N)c1cccc(Br)c1	-2	0.35
Cc1ccc(C)c(OCc2cc(C(=O)N(C)[C@H]3CCN(C)C3)no2)c1	-25	2.2
CCn1nc(-c2cc(OC(F)(F)F)ccc2O)nc1N(C)C	-8	1.09
CC(C)N(CCN(C)C)C(=O)c1ccc(CNC(=O)OC(C)(C)C)o1	-8	0.73
COc1ccc(CC(=O)N[C@@H](C)c2csc(C(C)C)n2)cc1OC	-19	1.7
C1=CCN([C@H]2CCN(c3cc(N4CCOCC4)ncn3)C2)C1	10	-1.21
Cc1nc(C)c(Br)c(N2CC[C@@](O)(CN(C)C)C2)n1	-8	1.29
CS(=O)(=O)Cc1noc([C@H]2C[C@@H]2C2CC2)n1	-3	0.55
Cc1ccc2[nH]c3c(c2c1)C[C@@H](NS(=O)(=O)C1(C)CC1)CC3	3	-0.34

SMILES	% Inhibition [%]	Z score
Cc1nc2ccccc2n1CCNc1nccnc1C#N	-17	3.26
Cc1nc(C(=O)NCCn2cc(C(=O)N(C)Cc3ccccc3)nn2)cs1	-2	0.29
CCOc1ncccc1NC(=O)N(C)[C@@H](C)C(OC)OC	-4	0.76
CC(=O)c1cc(C(=O)N(C)c2ccc(Br)cc2C)n(C)c1	-9	1.04
COc1ccc(F)c(-c2cccnc2O)c1	2	-0.33
Cc1cc(C(=O)NCCOc2ccccc2)c(C)s1	-17	2.3
CC(C)OC(=O)NCCOC(=O)N(O)c1ccc(Cl)cc1	-11	2.21
Cc1noc2nc(CCC(=O)NCc3ccco3)nc(N3CCOCC3)c12	1	-0.13
Cc1nc(C(=O)NC(C)C(C)NC(=O)OC(C)(C)C)c(C)o1 (stereo unspecified)	-1	0.13
CC(C)(CO)N1CCN(S(=O)(=O)CCc2ccccc2)CC1	0	-0.05
O=C1COc2cc(C(=O)N3CCCCC3)ccc2N1	-10	1.89
CN(C)C(=O)c1cccnc1O[C@H]1CCN(C(=O)CC2CCCCC2)C1	-5	0.86
CC(=O)c1ccc(-c2ccc(C(=O)NCC3(O)CCCCCC3)o2)cc1	-7	0.95
O=C(C1CCOCC1)N1CCC[C@H](c2nc(C3CCOCC3)no2)C1	2	-0.25
O=C(c1ccc(Cl)cc1)N1CCc2[nH]cnc2C1	-13	1.52
Cc1[nH]c2c(F)cc(F)cc2c1CCNC(=O)[C@@H](C)Cn1cccn1	-1	0.14
Cc1nn(C)cc1C(=O)NCCCN1CCCC1=O	-3	0.54
COC(=O)C(NC(=O)C1CCOC1)C(C)C (stereo unspecified)	-10	1.49
N#Cc1ccccc1S(=O)(=O)N1CCc2ncncc2C1	0	-0.06
CN(C)C(=O)CCCNC(=O)Cc1cccnc1	-10	1.02
CC(C)Cn1ncnc1CN1C[C@H]2CCS(=O)(=O)[C@H]2C1	-5	0.69
